The whole screen tested about 3,200 compounds, of which about 300 (9.4%) showed activity. The entries are a selection whose mix differs from that of the whole data set.
System: A673/TR/shEF
Test: cell viability (LOESS-normalised, relative to median of negative controls) (log2 ratio); higher = more viable cells (less compound effect), active = hit call of the paper (over 3 MAD below the median)
Details: treatment time: 72 h
How it was run: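 Doxycycline, present or absent from 24 h before compounds, was used to induce EWS-FLI1 shRNA knockdown in A673/TR/shEF Ewing sarcoma cells at 1,500 per well in 384-well plates. Cells then received library compounds at two or more concentrations, or DMSO controls, for three days. Viability was measured by CellTiter-Glo luminescence on an Envision reader, and per-plate LOESS correction, division by the negative-control median and log2 transformation followed.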

[1] = 0.25 µM, library screen: screen1, EWS-FLI1 expression: high (no doxycycline)
[2] = 0.25 µM, library screen: screen1, EWS-FLI1 expression: low (doxycycline-induced shRNA knockdown)
[3] = 2.5 µM, library screen: screen1, EWS-FLI1 expression: high (no doxycycline)
[4] = 2.5 µM, library screen: screen1, EWS-FLI1 expression: low (doxycycline-induced shRNA knockdown)
[5] = 0.25 µM, library screen: screen2, EWS-FLI1 expression: high (no doxycycline)
[6] = 0.25 µM, library screen: screen2, EWS-FLI1 expression: low (doxycycline-induced shRNA knockdown)
[7] = 2.5 µM, library screen: screen2, EWS-FLI1 expression: high (no doxycycline)
[8] = 2.5 µM, library screen: screen2, EWS-FLI1 expression: low (doxycycline-induced shRNA knockdown)
[9] = 0.103 µM, library screen: screen3, EWS-FLI1 expression: high (no doxycycline)
[10] = 0.103 µM, library screen: screen3, EWS-FLI1 expression: low (doxycycline-induced shRNA knockdown)
[11] = 0.308 µM, library screen: screen3, EWS-FLI1 expression: high (no doxycycline)
[12] = 0.308 µM, library screen: screen3, EWS-FLI1 expression: low (doxycycline-induced shRNA knockdown)
[13] = 0.926 µM, library screen: screen3, EWS-FLI1 expression: high (no doxycycline)
[14] = 0.926 µM, library screen: screen3, EWS-FLI1 expression: low (doxycycline-induced shRNA knockdown)
[15] = 2.8 µM, library screen: screen3, EWS-FLI1 expression: high (no doxycycline)
[16] = 2.8 µM, library screen: screen3, EWS-FLI1 expression: low (doxycycline-induced shRNA knockdown)
[17] = 8.3 µM, library screen: screen3, EWS-FLI1 expression: high (no doxycycline)
[18] = 8.3 µM, library screen: screen3, EWS-FLI1 expression: low (doxycycline-induced shRNA knockdown)
[19] = 25 µM, library screen: screen3, EWS-FLI1 expression: high (no doxycycline)
[20] = 25 µM, library screen: screen3, EWS-FLI1 expression: low (doxycycline-induced shRNA knockdown)

Measured: cell viability (log2)

CCOc1ccc(Cc2nccc3cc(OCC)c(OCC)cc23)cc1OCC
inactive: [1] 0.0902 | [2] 0.0955 | [3] 0.197 | [4] 0.00613

CC12CC3CC(C)(C1)CC(N)(C3)C2
inactive: [1] 0.0377 | [2] -0.0235 | [5] 0.182 | [6] 0.131 | [3] -0.00435 | [4] 0.0239 | [7] 0.082 | [8] 0.0933

CC(C)=CCc1c(O)cc2oc(C)cc(=O)c2c1O
inactive: [1] 0.0502 | [2] 0.0433 | [3] 0.123 | [4] 0.048

C[C@H](CCC(=O)O)[C@H]1CC[C@H]2[C@@H]3C(O)CC4=CC(=O)CC[C@]4(C)[C@H]3CC[C@]12C (stereo not given in full)
inactive: [1] 0.0418 | [2] -0.00533 | [3] 0.162 | [4] -0.0526

CCC[C@@H]1C[C@@H](C(=O)N[C@@H]([C@H]2O[C@H](SC)[C@H](O)[C@@H](O)[C@H]2O)[C@@H](C)O)N(C)C1
inactive: [9] 0.078 | [10] 0.0133 | [1] 0.123 | [2] -0.0307 | [11] 0.026 | [12] 0.0873 | [13] 0.0618 | [14] 0.077 | [3] 0.161 | [4] 0.176 | [15] 0.0838 | [16] 0.021 | [17] 0.028 | [18] 0.0347 | [19] -0.105 | [20] 0.117

CO[C@H]1C[C@@H]2CC[C@@H](C)[C@@](O)(O2)C(=O)C(=O)N2CCCC[C@H]2C(=O)O[C@H]([C@H](C)C[C@@H]2CC[C@@H](OC(=O)C(C)(CO)CO)[C@H](OC)C2)CC(=O)[C@H](C)/C=C(\C)[C@@H](O)[C@@H](OC)C(=O)[C@H](C)C[C@H](C)/C=C/C=C/C=C/1C
active: [9] -0.862 | [10] -0.712 | [11] -0.972 | [12] -0.713 | [13] -0.859 | [14] -0.683 | [15] -0.839 | [16] -0.886 | [17] -0.828 | [18] -0.678 | [19] -0.905 | [20] -0.717

CN1CCCN=C1/C=C/c1cccs1
inactive: [1] 0.0595 | [2] 0.108 | [3] 0.159 | [4] 0.236

CC(N)=NCc1cccc(CN)c1
inactive: [5] 0.131 | [6] 0.0338 | [7] 0.114 | [8] 0.119

CCC(=O)OCC(=O)[C@@]1(OC(=O)CC)[C@@H](C)C[C@H]2[C@@H]3CCC4=CC(=O)C=C[C@]4(C)[C@@]3(F)[C@@H](O)C[C@@]21C
inactive: [9] 0.116 | [10] 0.0802 | [1] 0.101 | [2] -0.806 | [11] 0.0157 | [12] 0.0752 | [13] 0.114 | [14] 0.0499 | [3] 0.142 | [4] -0.262 | [15] 0.0119 | [16] 0.0676 | [17] 0.0933 | [18] 0.128 | [19] 0.11 | [20] 0.137

CC1(C)O[C@@H]2C[C@H]3[C@@H]4C[C@H](F)C5=CC(=O)CC[C@]5(C)[C@H]4[C@@H](O)C[C@]3(C)[C@]2(C(=O)CO)O1
inactive: [1] 0.0479 | [2] -0.0893 | [3] 0.0397 | [4] -0.262

CC1=CCc2c(cc3oc(C)cc(=O)c3c2O)OC1
inactive: [1] 0.0735 | [2] 0.0537 | [3] 0.178 | [4] 0.174

CC1(C)CC2C1CCC1(C)OC1CCC2(C)O (stereo not given)
inactive: [1] 0.0946 | [2] 0.105 | [3] 0.0543 | [4] 0.0438

O=C1N=C(O)CN1/N=C/c1ccc(-c2ccc([N+](=O)[O-])cc2)o1
inactive: [1] 0.00489 | [2] 0.0859 | [5] 0.195 | [6] 0.124 | [3] 0.094 | [4] 0.0865 | [7] 0.0996 | [8] 0.0435

COc1ccc(/C=C/c2cc(O)cc(O[C@@H]3O[C@H](CO)[C@@H](O)[C@H](O)[C@H]3O)c2)cc1O
inactive: [1] 0.0642 | [2] 0.0827 | [3] 0.111 | [4] 0.162

CN(C(=O)CCCOc1ccc2[nH]c(=O)ccc2c1)C1CCCCC1
inactive: [5] 0.137 | [6] 0.0412 | [7] 0.156 | [8] 0.0867

NNC(=O)c1ccncc1
inactive: [9] 0.0921 | [10] 0.0306 | [1] 0.0192 | [2] 0.0479 | [11] 0.0876 | [12] 0.0956 | [13] 0.185 | [14] 0.0683 | [3] 0.138 | [4] 0.0125 | [15] 0.167 | [16] 0.115 | [17] 0.105 | [18] 0.0697 | [19] 0.0945 | [20] 0.108

CC1(C)C(=O)C=C[C@]2(C)C3CC[C@@]4(C)[C@H](c5ccoc5)OC(=O)[C@H]5O[C@]54[C@]3(C)C(=O)C[C@@H]12 (stereo not given in full)
inactive: [1] 0.0539 | [2] 0.0813 | [3] 0.0765 | [4] 0.119

Source: the supplement of paper PMC6089552
